A lower IC50 marks a more sensitive line; fits outside the tested doses are given as limits. AUC, from the same fit, is the share of area under the viability curve across the 256-fold dose range: 1 means no effect, lower means more sensitive. Where the top dose is marked as inferred, it comes from the curve model; the source does not state it.
Experiments:
Assay in all cases: Viability of human cancer cell lines after 72 h of drug (GDSC screen)
ACHP (KIN001-260) = compound: N#Cc1c(C2CCNCC2)cc(-c2c(O)cccc2OCC2CC2)nc1N [ACHP (KIN001-260)]; conditions: top dose 20 µM; top dose inferred
Protocol: (§1)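 Human cancer cell lines in 384-well plates, medium with 10% serum, drug for 72 h over a 256-fold dose range (nine 2-fold or five 4-fold steps up to the top dose). Adherent lines were fixed and stained with the nucleic acid dye Syto60, suspension lines read with resazurin; signal relative to control wells, capped at 0 and 100%. One two-parameter sigmoid per drug and line, fitted in a mixed model over all curves with the slope shared within a line.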

CAY10603 = compound: CC(C)(C)OC(=O)Nc1ccc(-c2cc(C(=O)NCCCCCCC(=O)NO)no2)cc1 [CAY10603]; conditions: top dose 20 µM; top dose inferred
Protocol: as §1

CH5424802 = compound: CCc1cc2c(cc1N1CCC(N3CCOCC3)CC1)C(C)(C)c1[nH]c3cc(C#N)ccc3c1C2=O [CH5424802]; conditions: top dose 5.12 µM; top dose inferred
Protocol: as §1

XMD8-92 = compound: CCOc1cc(N2CCC(O)CC2)ccc1Nc1ncc2c(n1)N(C)c1ccccc1C(=O)N2C [XMD8-92]; conditions: top dose 10 µM; top dose inferred
Protocol: as §1

Cell Line | AUC (ACHP (KIN001-260)) | IC50 (ACHP (KIN001-260)) [µM] | AUC (CAY10603) | IC50 (CAY10603) [µM] | AUC (CH5424802) | IC50 (CH5424802) [µM] | AUC (XMD8-92) | IC50 (XMD8-92) [µM]
HCC2218 (breast, suspension) | 0.972 | > 20 | 0.563 | 1.94 | 0.952 | > 5.12 | 0.98 | > 10
HCC2998 (large intestine, adherent) | 0.946 | > 20 | 0.708 | 4.73 | 0.975 | > 5.12 | 0.905 | > 10
HCC-15 (lung squamous cell carcinoma, adherent) | 0.957 | > 20 | 0.826 | 16.9 | 0.954 | > 5.12 | 0.918 | > 10
HCC-56 (large intestine, adherent) | 0.941 | > 20 | 0.408 | 0.694 | 0.925 | > 5.12 | 0.936 | > 10
HCC-78 (lung adenocarcinoma, adherent) | 0.982 | > 20 | 0.485 | 1.13 | 0.977 | > 5.12 | 0.881 | > 10
HCT-15 (large intestine, adherent) | 0.973 | > 20 | 0.696 | 4.63 | 0.98 | > 5.12 | 0.981 | > 10
HCT-116 (large intestine, adherent) | 0.925 | > 20 | 0.373 | 0.568 | 0.984 | > 5.12 | 0.913 | > 10
HEC-1 (endometrium, adherent) | 0.989 | > 20 | 0.643 | 3.06 | 0.989 | > 5.12 | 0.927 | > 10
HGC-27 (stomach, adherent) | 0.969 | > 20 | 0.493 | 1.2 | 0.99 | > 5.12 | 0.875 | 7.3
HSC-2 (head and neck, adherent) | 0.989 | > 20 | 0.698 | 4.28 | 0.987 | > 5.12 | 0.874 | 8.47
HSC-4 (head and neck, adherent) | 0.979 | > 20 | 0.711 | 6.11 | 0.978 | > 5.12 | 0.796 | 6.57
HT55 (large intestine, adherent) | 0.99 | > 20 | 0.771 | 7.63 | 0.99 | > 5.12 | 0.978 | > 10
HT-29 (large intestine, adherent) | 0.963 | > 20 | 0.468 | 1.02 | 0.985 | > 5.12 | 0.874 | 9.72
HT-115 (large intestine, adherent) | 0.991 | > 20 | 0.651 | 3.14 | 0.991 | > 5.12 | 0.974 | > 10
HT-1197 (bladder, adherent) | 0.985 | > 20 | 0.612 | 2.7 | 0.983 | > 5.12 | 0.894 | > 10
HUTU-80 (digestive system, adherent) | 0.973 | > 20 | 0.386 | 0.643 | 0.991 | > 5.12 | 0.982 | > 10
Hey (ovary, adherent) | 0.977 | > 20 | 0.394 | 0.651 | 0.98 | > 5.12 | 0.926 | > 10
Hs683 (glioma, adherent) | 0.983 | > 20 | 0.734 | 5.86 | 0.988 | > 5.12 | 0.954 | > 10
Hs766T (pancreas, adherent) | 0.984 | > 20 | 0.811 | 15 | 0.984 | > 5.12 | 0.921 | > 10
Hs939-T (melanoma, adherent) | 0.981 | > 20 | 0.816 | 12.4 | 0.986 | > 5.12 | 0.943 | > 10
Hs940-T (melanoma, adherent) | 0.981 | > 20 | 0.712 | 5.7 | 0.984 | > 5.12 | 0.958 | > 10

Cell Line | AUC (ACHP (KIN001-260)) | IC50 (ACHP (KIN001-260)) [µM] | AUC (CAY10603) | IC50 (CAY10603) [µM] | AUC (CH5424802) | IC50 (CH5424802) [µM] | AUC (XMD8-92) | IC50 (XMD8-92) [µM]
Hs-445 (Hodgkin lymphoma, suspension) | 0.898 | > 20 | 0.405 | 0.702 | 0.988 | > 5.12 | 0.888 | 9.87
Hs-578-T (breast, adherent) | 0.987 | > 20 | 0.758 | 7.34 | 0.93 | > 5.12 | 0.928 | > 10
HuH-7 (liver, adherent) | 0.987 | > 20 | 0.545 | 1.66 | 0.985 | > 5.12 | 0.929 | > 10
HuO9 (osteosarcoma, adherent) | 0.981 | > 20 | 0.707 | 5.16 | 0.943 | > 5.12 | 0.875 | > 10
HuP-T3 (pancreas, adherent) | 0.953 | > 20 | 0.549 | 1.75 | 0.971 | > 5.12 | 0.93 | > 10
HuP-T4 (pancreas, adherent) | 0.972 | > 20 | 0.447 | 0.887 | 0.98 | > 5.12 | 0.773 | 4.13
IA-LM (large cell lung carcinoma, adherent) | 0.972 | > 20 | 0.805 | 11.6 | 0.983 | > 5.12 | 0.853 | 9.36
IGR-1 (melanoma, adherent) | 0.978 | > 20 | 0.348 | 0.502 | 0.99 | > 5.12 | 0.894 | 9.41
IHH-4 (thyroid, semi-adherent) | 0.992 | > 20 | 0.518 | 1.38 | 0.993 | > 5.12 | 0.895 | 7.91
IM-95 (stomach, adherent) | 0.967 | > 20 | 0.665 | 3.72 | 0.982 | > 5.12 | 0.943 | > 10
IST-MEL1 (melanoma, adherent) | 0.865 | > 20 | 0.492 | 1.18 | 0.978 | > 5.12 | 0.935 | > 10
IST-MES1 (mesothelioma, adherent) | 0.968 | > 20 | 0.587 | 2.17 | 0.986 | > 5.12 | 0.779 | 4.12
JEG-3 (urogenital system, adherent) | 0.991 | > 20 | 0.935 | > 20 | 0.991 | > 5.12 | 0.981 | > 10
JHH-1 (liver, adherent) | 0.968 | > 20 | 0.249 | 0.221 | 0.981 | > 5.12 | 0.843 | 7.98
JHOS-2 (ovary, adherent) | 0.958 | > 20 | 0.605 | 2.56 | 0.959 | > 5.12 | 0.867 | > 10
JHOS-3 (ovary, adherent) | 0.979 | > 20 | 0.884 | > 20 | 0.957 | > 5.12 | 0.962 | > 10
JHU-022 (head and neck, adherent) | 0.96 | > 20 | 0.958 | > 20 | 0.978 | > 5.12 | 0.806 | 6.8
JIMT-1 (breast, adherent) | 0.983 | > 20 | 0.7 | 4.81 | 0.982 | > 5.12 | 0.883 | > 10
JJN-3 (haematopoietic neoplasm, suspension) | 0.876 | 13.9 | 0.376 | 0.609 | 0.993 | > 5.12 | 0.869 | 6.53
JURL-MK1 (chronic myeloid leukaemia, suspension) | 0.786 | 8.59 | 0.425 | 0.782 | 0.972 | > 5.12 | 0.985 | > 10
K2 (melanoma, adherent) | 0.939 | > 20 | 0.819 | 16 | 0.981 | > 5.12 | 0.861 | > 10

Cell Line | AUC (ACHP (KIN001-260)) | IC50 (ACHP (KIN001-260)) [µM] | AUC (CAY10603) | IC50 (CAY10603) [µM] | AUC (CH5424802) | IC50 (CH5424802) [µM] | AUC (XMD8-92) | IC50 (XMD8-92) [µM]
K5 (thyroid, adherent) | 0.984 | > 20 | 0.574 | 1.98 | 0.98 | > 5.12 | 0.855 | 7.45
KCL-22 (chronic myeloid leukaemia, suspension) | 0.907 | 19.6 | 0.352 | 0.526 | 0.988 | > 5.12 | 0.908 | 9.96
KGN (ovary, adherent) | 0.954 | > 20 | 0.394 | 0.601 | 0.973 | > 5.12 | 0.851 | > 10
KINGS-1 (glioma, adherent) | 0.968 | > 20 | 0.468 | 0.992 | 0.979 | > 5.12 | 0.969 | > 10
KM12 (large intestine, adherent) | 0.937 | > 20 | 0.592 | 2.28 | 0.943 | > 5.12 | 0.964 | > 10
KMH-2 (thyroid, adherent) | 0.99 | > 20 | 0.684 | 3.82 | 0.989 | > 5.12 | 0.861 | 7.05
KMRC-20 (kidney, adherent) | 0.989 | > 20 | 0.809 | 10.6 | 0.987 | > 5.12 | 0.964 | > 10
KNS-42 (glioma, adherent) | 0.959 | > 20 | 0.59 | 2.31 | 0.984 | > 5.12 | 0.912 | > 10
KP-N-YN (neuroblastoma, adherent) | 0.983 | > 20 | 0.532 | 1.54 | 0.98 | > 5.12 | 0.794 | 5.11
KU-19-19 (bladder, adherent) | 0.987 | > 20 | 0.604 | 2.41 | 0.987 | > 5.12 | 0.795 | 4.65
KURAMOCHI (ovary, adherent) | 0.977 | > 20 | 0.656 | 3.63 | 0.981 | > 5.12 | 0.885 | > 10
KYAE-1 (oesophagus, suspension) | 0.949 | > 20 | 0.55 | 1.74 | 0.926 | > 5.12 | 0.869 | > 10
KYSE-50 (oesophagus, adherent) | 0.966 | > 20 | 0.671 | 3.56 | 0.727 | 1.32 | 0.924 | > 10
KYSE-140 (oesophagus, adherent) | 0.946 | > 20 | 0.984 | > 20 | 0.957 | > 5.12 | 0.952 | > 10
KYSE-150 (oesophagus, adherent) | 0.982 | > 20 | 0.806 | 9.69 | 0.989 | > 5.12 | 0.983 | > 10
KYSE-220 (oesophagus, adherent) | 0.985 | > 20 | 0.682 | 4.16 | 0.977 | > 5.12 | 0.976 | > 10
KYSE-410 (oesophagus, adherent) | 0.985 | > 20 | 0.786 | 9.28 | 0.985 | > 5.12 | 0.809 | 5.65
KYSE-450 (oesophagus, adherent) | 0.901 | > 20 | 0.697 | 4.31 | 0.932 | > 5.12 | 0.942 | > 10
L-428 (Hodgkin lymphoma, suspension) | 0.955 | > 20 | 0.991 | > 20 | 0.992 | > 5.12 | 0.945 | > 10
LAN-6 (neuroblastoma, adherent) | 0.98 | > 20 | 0.798 | 11.6 | 0.881 | > 5.12 | 0.97 | > 10

Source: the supplement of paper PMC4967469
